Reference: PubChem BioAssay AID330 (DTP/NCI, 2004)
Inconclusive results and toxic doses are left out. For part of its entries the source gives two or more results. The list is limited to them. An entry can have further records. The records of an entry differ, and nothing given here explains why; some may be repeats, others may stem from another dose, organism or construct than stated.

Tested on: P388 leukemia ip, CD2F1 mice, survival T/C
Assay: NCI In Vivo Anticancer Drug Screen. Data for tumor model P388 Leukemia (intraperitoneal) in CD2F1 (CDF1) mice
Conditions: endpoint: median survival time, higher = longer survival

CC(=O)[C@]1(O)Cc2c(O)c3c(c(O)c2[C@@H](OC2CC(N)C(O)C(C)O2)C1)C(=O)c1c(O)cccc1C3=O (some centres undefined) was tested, and the T/C (dose: 0.32 mg/kg/injection, schedule: Q04DX003 (ip), vehicle: water) was 99 % of control, 107 % of control, 166 % of control and the T/C (dose: 1.28 mg/kg/injection, schedule: Q04DX003 (ip), vehicle: water) was 90 % of control and 152 % of control.

Cc1ccc(-c2cc(=O)c3cccc(CC(=O)O)c3o2)cc1 was tested, and the T/C (dose: 200.0 mg/kg/injection, schedule: Q01DX005 (ip), vehicle: Klucel (hydroxypropylcellulose) (HPC)) was 118 % of control and 151 % of control.

In the case of NNc1c(C(N)=O)c2c(N)ncnc2n1C1OC(CO)C(O)C1O (centres undefined), the T/C (dose: 25.0 mg/kg/injection, schedule: Q01DX005 (ip), vehicle: Klucel (hydroxypropylcellulose) (HPC)) is reported as 90 % of control and 177 % of control.
